PMC12136788
Some of the results follow.

T1: UNK ZnF1-3 (human, UniProt Q9C0B0 31-174)
T1 sequence: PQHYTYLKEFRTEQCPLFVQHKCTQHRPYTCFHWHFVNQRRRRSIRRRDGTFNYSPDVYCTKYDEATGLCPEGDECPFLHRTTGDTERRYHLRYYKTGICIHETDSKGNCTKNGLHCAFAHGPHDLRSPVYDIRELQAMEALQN

B1: chr3:176740097:176740098:-_ENSG00000177565_ENST00000430069|hu_mus|hu_hu_hu_mus_True|38_38 (ssRNA)
RNA: GGGAGUUCUACAGUCCGACGAUCUGUUUUGUAUACCACAAAAGGAGGCACUUUCAGUAUCUGCAAAAGGUGUUUAGUCCUAAAACAUACUCACCUAGAGAAUAAUUCAGGAAAACAAUCUGUUACACUCUAAGACCUACUCCACAACAGAGGAUUGAGCAUCA
B2: chr1:224585847:224585848:-_ENSG00000162923_ENST00000295024|hu_mus|FALSE|FALSE (ssRNA)
RNA: GGGAGUUCUACAGUCCGACGAUCUCCAAAACACGAGUGGAUUGUAUAAAACCCUUGGGUAACACCUUGAUAUUUCCUUACUAAAACUCUGUCUUGCAAGUCCCAUAAAUGAACUCCCUGAGUUGCUACAUUUAACAAAGCUAACAACAGAGGAUUGAGCAUCA
B3: 123812538_123813364_1272_CDS_ENSG00000139697_ENST00000420886|human|control|control (ssRNA)
RNA: GGGAGUUCUACAGUCCGACGAUCUAAGUUUUUGGCUUUAUGACACUCAUCAAACACUAUCACUCCAUCGAAGUCAUCACCGCACCAAUGCAGAAGUUGUUUUAACCUAGUUUUAUACUUGCCGCCAGACUGGCUUUCACCAAUCAACAGAGGAUUGAGCAUCA
B4: chr10:121347744:121347745:-_ENSG00000151923_ENST00000436547|hu_mus|motif|central (ssRNA)
RNA: GGGAGUUCUACAGUCCGACGAUCCGAUCUGACUGAAUAACUGAAGAAUAAGGACUUCUGUCACAUCUCUGGAGAGGUUACCGGCGUAUAGAGUCCGGGGCUGUCCGUCGUCUUCCAUCAUGGUGGGUGCGACGGAGUGAUCCCCAACAGAGGAUUGAGCAUCA
B5: chr4:88365945:88365946:-_ENSMUSG00000070923_ENSMUST00000094993|mus_hu|FALSE|FALSE (ssRNA)
RNA: GGGAGUUCUACAGUCCGACGAUCAAUGCAUUUGUUAGCCACUUGAUAAACAUACUAAAAGCCAUACAAGACGAAUAACAUCAGUUACCUUUAUAUCUAAUAACUGUACCAAUCACUGUAAGAAGAUACAACUGAAGGGGAAGUCAACAGAGGAUUGAGCAUCA
B6: chr14:76907486:76907487:+_ENSMUSG00000022010_ENSMUST00000022587|mus_mus|FALSE|FALSE (ssRNA)
RNA: GGGAGUUCUACAGUCCGACGAUCACAAGUAGAACAGGUAAAUACAGUGGGGACUGUGUGGGGGACAUGCGCAGAACGACUAUACAGGUGAGGUGCAGAAACCCCUACUGGGAAAUCCACUUCCUUAGCAACUGACCACUUCUCCAACAGAGGAUUGAGCAUCA
B7: chr3:150289932:150289933:+_ENSG00000144895_ENST00000460851|hu_hu|hu_hu_hu_mus_False|18_78 (ssRNA)
RNA: GGGAGUUCUACAGUCCGACGAUCCUUGUAGUUUUUAACAUCCCAUACUUCCAUUUGUCCCCUCAGAUUUCCAAAUCCAGCCAGCACUAAUAUAUGUCCAUGAGGGCUAUAGAAGGCUGCAUUACGAGGACCAGUCCCAAAGUCCAACAGAGGAUUGAGCAUCA
B8: 81714202_81746465_819_CDS_ENSG00000153956_ENST00000356860|human|control|control (ssRNA)
RNA: GGGAGUUCUACAGUCCGACGAUCUAACACAAUUGUUGAGCCCUCAUAGAUGUCAGUAGGAAUAUGGACUGCUGCGUGCUGAUAAGAUAUUUGUCGUCCAAAAUUAGCAUCUUCAAUGAAAACAGGUUUUAUCCUCUGGCUGCCCAACAGAGGAUUGAGCAUCA
B9: chr4:144460044:144460045:+_ENSG00000153147_ENST00000283131|hu_mus|hu_hu_hu_mus_False|48_68 (ssRNA)
RNA: GGGAGUUCUACAGUCCGACGAUCACGGUCCAUAGCCUGAAGAUCAACUUGCGGAUUCCAAUCUGAGUCAUACAAAAUGACUACAUCAGCAGUCGCAAGAUUGAUGCCCAGACCACCAGCACGUGUGCUUAGCAUAAAUACAAACAACAGAGGAUUGAGCAUCA
B10: chr3:98518469:98518470:-_ENSG00000057019_ENST00000326840|hu_hu|FALSE|FALSE (ssRNA)
RNA: GGGAGUUCUACAGUCCGACGAUCUGGGGGAGGUUGGUUCCCCGUAGCCUUGAAAGUGGAUGUGGAGGGCUGACCAACUGAAGUUGUGGGGUGCCCUGACAUGUCCAUGAUGAUUGGGGUUGCAUACUCAGGCCCCGUAAUUGGCAACAGAGGAUUGAGCAUCA
B11: chr17:63010574:63010575:-_ENSG00000120063_ENST00000439174|hu_hu|motif|central (ssRNA)
RNA: GGGAGUUCUACAGUCCGACGAUCGAAACAUUCCACCAGGAAUUUUUGGACGUCUCUUAAGCAGUGGGGAUCCCCUUCAAAUUCGGGGAAAUAGUCUUUGAUGCUCACAAUUUGCACCUUCUCCUCAAGCAAGUCUGUCUUGUUCAACAGAGGAUUGAGCAUCA
B12: 60849485_60849605_2359_CDS_ENSMUSG00000021559_ENSMUST00000077453|mouse|control|control (ssRNA)
RNA: GGGAGUUCUACAGUCCGACGAUCGAAACUCCUUAACAGCCCACACUUGAGAGAUUCCACCAGGGUGGAUUUCCCUGAUCCCGAAUGGCCAAACAGUUUGAGCUUGAUUCUGGGCUGGAGAUUCUGGGUGGGUCGGAGUUGCUGCAACAGAGGAUUGAGCAUCA
B13: 107179118_107179238_2844_3pUTR_ENSMUSG00000047496_ENSMUST00000058688|mouse|control|control (ssRNA)
RNA: GGGAGUUCUACAGUCCGACGAUCAGCACACGUCUGUUGUGCAGCUUGAAGAUGAAGGCCAGCAGGCCAAUCAUGCUUCCAUGUUCCAGGGCUGCUUCUGACCUUGCUUAGAUCCUGUGCCACUCUUUCCUUUCCUUUGCCUUUCAACAGAGGAUUGAGCAUCA
B14: chr4:17845017:17845018:+_ENSG00000109805_ENST00000514176|hu_mus|hu_hu_hu_mus_False|1_108 (ssRNA)
RNA: GGGAGUUCUACAGUCCGACGAUCGCUUCCUAACUUAGUAUCUUCAUUAAGGAACUCUGCAAGGUUAAGUUUACUUUUCUGUAGCGCAGCUGUUUUGGCUCGUCUGGGUAAUCUCAUCUUCAUUUCUGAUGGUGGUUUGGAACUCAACAGAGGAUUGAGCAUCA

Biological target: T1, UNK ZnF1-3
Experiment: nsRBNS (natural sequence RNA bind-n-seq); RBNS binding buffer (assumed for nsRBNS): 25 mM Tris pH 7.5, 150 mM KCl, 3 mM MgCl2, 0.01% Triton X-100, 500 ug/ml BSA, 20 U/ml SUPERase-In, 4 C; UNK is unkempt and MSI1 is Musashi-1; names of the RNAs are library labels; protein concentration not given here; high values mean tight binding

Binder | binding signal [enrichment R]
B1 | 0.791
B2 | 1.13
B3 | 0.798
B4 | 0.559
B5 | 1.18
B6 | 1.12
B7 | 1.39
B8 | 1.4
B9 | 0.633
B10 | 0.523
B11 | 0.659
B12 | 1.18
B13 | 0.882
B14 | 0.592
